# Measurements as given in the supplement of paper PMC11417369.
# ± gives the standard deviation of the averaged measurements. Some of the results follow.
# Tested on: PfAP2-G AP2 domain (GST-tagged)
# Assay: gcPBM binding intensity (ln(normalized median fluorescence intensity)); higher = stronger DNA binding
# Outline: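 Binding intensity values are the highest Masliner-normalised natural-log median intensity among replicate spots of either probe orientation. The binding step lasted 1 h in 1× PBS with 1% milk, 0.2 mg/ml BSA, 0.5% salmon testes DNA and 0.03% Triton X-100, using GST-tagged P. falciparum DNA-binding domains expressed in E. coli on an Agilent 4 × 180k array of primer-extended double-stranded 36-bp intergenic genomic probes plus negative controls. Alexa488 anti-GST antibody and a 488 nm scan detected bound protein.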
row,Sequence,gcPBM binding intensity (ln)
1,AATTATAAATTGGACACACACATAAAAAATATGTAC [CACACA_site221],11.6 ± 0.8
2,TAAAGGAAATAAAAAACATGCAAATATGAAATATAT [TGCATGCA_site745],9.88 ± 0.12
3,TTTTTTTTTTTTTTTTTTAAACACCTCAAAAAAAAA [CACACA_negctrl_site807],9.89 ± 0.39
4,TTGCATTGTCCATGCGCACACACTACTAGAATAATA [CACACA_site3678],10.8 ± 0.47
5,TTACATATTATACGAAGTACGTACAAATACTTATAT [XGTACX_site8598],11.7 ± 0.81
6,GCGAATAATATGGACATACACACATATACATACATA [CACACA_site2115],10.9 ± 0.55
7,TATATATATTTTTGTGTGCACTATAATATGAAAATA,10.6 ± 0.51
8,TTTTTTTTTTTCTTCACACACAGTACTACTATTTAT [CACACA_site2409],11.3 ± 1
9,ACCTTATTTAGTTATAGTACACAAAGTATTAAACAT [XGTACX_site8418],11.5 ± 0.81
10,ATTTTTTTTTTTTTTTTCTTTTTTCTTCTTTTTTTT [CACACA_negctrl_site1223],9.65 ± 0.085
11,ATATATATTATAAAATGTACAAATGTTATATAAAAT [XGTACX_site4750],10.9 ± 0.38
12,TTTTTTTTTTTTTTATGTACATATATATATTTTATT [XGTACX_site6915],11.2 ± 0.98
13,TCATTTATTGAGGAATGTACACGTAAAATTTAATAA [XGTACX_site4086],11.4 ± 0.8
14,TATACATAAAAATGATGTACATATAATATATATATA [XGTACX_site3863],11.3 ± 0.76
15,TTATTATTATAAAATTGTACTTGGTATATTAACATA [XGTACX_site5829],10.9 ± 0.64
16,TTGTTTATTTGTAAAGCTAACAAGAAATGTGAATAT [CACACA_negctrl_site931],10.1 ± 0.099
17,AACGAACACTATTACACACATACATACATATGTATG [CACACA_site1859],10.22 ± 0.014
18,TATTTATAAATATAAACACACAACATTCTATGCATA [CACACA_site3243],9.82 ± 0.19
19,ATATAAATATATTTTACACACAATGGAGAAAAAAAT [CACACA_site6450],10.2 ± 0.13
20,GGATTAATATATTTACCACACACCCATTTCGATTTT [CACACA_site9200],10.2 ± 0.13
21,ATCTTGAAGATTATTTGTACACAAAAGTTAAAATAT [XGTACX_site242],11.2 ± 0.82
22,TATATAATTATTTATTGTACACTCAAATCGATAAGG [XGTACX_site3216],11.3 ± 0.86
23,AATGTATTATGTCTTCGTACACATAAATAAATAAAT [XGTACX_site4004],11 ± 0.64

row,Sequence,gcPBM binding intensity (ln)
1,ATAATAAATGATAGCACACATATGTACATAAATACA [CACACA_site4634],11.5 ± 0.79
2,TATCTTAACAATTAGTGTACAGATAACCAATTAAAA [XGTACX_site3184],11.3 ± 0.89
3,AACATATAAAAATGTGCACACACACCCATATATATA [CACACA_site1525],10.4 ± 0.3
4,CACATTATGTATCATACACACAAATAGATATATAAC [CACACA_site6434],10.32 ± 0.092
5,TAAAATAAAAATATAGTGCACAGATTTTGATATTTT [GTGCAC_site9696],10.2 ± 0.2
6,CTTTGTGGTATAGATACACACTATATTAAGATGAAC [CACACA_site5215],10.3 ± 0.28
7,TTTTTTTTTTATGGTACACACACGCGTATGGTTGCA [CACACA_site1876],11.4 ± 0.91
8,TTTAGAAATAAATACACACATACATTTTTGTATACA [CACACA_site718],9.85 ± 0.071
9,TGAAGGTTTCAAAAACGTACAAAAAAAAATGTTAGT [XGTACX_site8803],11.2 ± 0.67
10,AAAGGATATAATACCATACACACATTTATAAAATAA [CACACA_site1931],10.07 ± 0.035
11,CAAATCAAAATTAATTAACACACAATTTTAATATTC [CACACA_site8641],9.7 ± 0.15
12,TTCTTTGTAGTATATTAACACACAACTGTTTATAAT [CACACA_site9305],10.23 ± 0.085
13,AAATAGAGAAATACAAGTACATACTAAACCAATCTA [XGTACX_site2780],11.2 ± 0.78
14,TATAATGTTGATAATAGTACGTATGAGTTCAAAAAA [XGTACX_site988],11.1 ± 0.59
15,GTTTATTAAACATTAGTGCAATTTTAATCCATTCTA,9.815 ± 0.021
16,TACCTACACTTTTGGAGTACAATTAAAAAAAAAAAA [XGTACX_site1403],11.5 ± 1.1
17,TTTAAAGTAATAAAGTGTACAAAAATAAATTCAGCT [XGTACX_site8651],11.2 ± 0.67
18,ACTTTTATTCGCTTACGTACATATATTATATATTAT [XGTACX_site4459],11.4 ± 0.73
19,AAAAGAAAATATATGTGTACTAAAATATATATATAT [XGTACX_site3817],11.5 ± 0.76
20,TTAATCCTTTTTAAAAGTACACATATATATATATAT [XGTACX_site962],11.6 ± 1
21,TATATATATATATAATGTACAGAAAAAAAAAAAAAA [XGTACX_site6141],10.8 ± 0.86
22,AAATCATGTTGAAGGGGTACAAAATATGTAATGTTG [XGTACX_site6222],11.3 ± 0.83
23,ATATTATATATTTGATGTACATTGAATGAGAGAGAA [XGTACX_site3324],11.1 ± 0.54

row,Sequence,gcPBM binding intensity (ln)
1,TTATTAATTATATATAGTACACATTTCACAGATGGG [XGTACX_site2349],11.3 ± 0.86
2,TGAACACATACATACACACACACAAAAAAAAAAAAA [CACACA_site392],10 ± 0.55
3,CTTGTGCTTTATAGGGTGCACATTTTGTTTTGGTAA [GTGCAC_site9899],10.7 ± 0.72
4,ATAAAAAGGTTTAAAAAAAAAAAAAAAAAAAAAAAA [CACACA_negctrl_site412],9.5 ± 0.35
5,AAAATTATGCAGTAGGTGCAATACCCTCGGCTTTTT [GTGCAC_site9556],9.905 ± 0.049
6,TATTTCAAATGTTATGTGCACATATTAATCCTACTT [GTGCAC_site9738],10.5 ± 0.28
7,AATATCTGAAAATAAAGTACAAACATATTATAAATA [XGTACX_site5738],11.1 ± 0.73
8,AATAATAATTTAAAAAGTACATTCTAATAAACACGT [XGTACX_site1444],11.2 ± 0.72
9,TACTTATTTGATTGGGTGCATATATATAGTATGTAT [GTGCAC_site9845],10.3 ± 0.3
10,TTATTTATGAGGGTGACACACAAAAGAGTGTTAAGA [CACACA_site277],10.4 ± 0.35
11,AAAAAAAAACACGCATGTACATAAAAATAATCATAC [XGTACX_site1086],11.1 ± 0.56
12,AAATAAAATAAAATAAAATAAAATAAAATAAAATAA [XGTACX_negctrl_site142],9.52 ± 0.042
13,AATAATAATAGAAACACACACACATTTTTAAGAATA [CACACA_site6692],10.01 ± 0.014
14,TGAAAAAAAAAATGCACACGCATACAGATAATATGT [CACACA_site4526],10 ± 0.16
15,TATACGTATACCTATACACACATATATATATATATA [CACACA_site1273],10.2 ± 0.28
16,TATATTCAAAAAAATTCATTTCTGATTTTTTTTTTT [CACACA_negctrl_site1085],9.45 ± 0.18
17,ATTATTGCAATTTAATGTACATAATACAAATTTGCC [XGTACX_site2729],11.2 ± 0.78
18,AATGAATAAATAAACACACACACATATATATATATG [CACACA_site18],10.01 ± 0.085
19,GATGAAATATCATTACGTACACAATAGTTTGTATTT [XGTACX_site5143],11.4 ± 0.97
20,AACATAACAAAAAAAAAAAAAAATATATATATATAT [TGCATGCA_negctrl_site370],9.8 ± 0.44
21,TATTTCACAAAAAAAAAAAAAAAAAAGAAGCAAAAA [CACACA_negctrl_site1040],9.8 ± 0.22
22,GTATATTGTACCATCACACATGTAAAACATAGATGT [CACACA_site5359],10.8 ± 0.52
23,ATGAATGAATACGTTTTACACACTTGAATATAATTT [CACACA_site8237],10.15 ± 0.057

row,Sequence,gcPBM binding intensity (ln)
1,TTTTTTTTTAAGTTTGCACACATGGAAGACAAAAAT [CACACA_site2505],10.6 ± 0.53
2,TCCTTAAAAAAACCTTAACACACATAAACTATAATT [CACACA_site9001],9.96 ± 0.042
3,TAATACATAAATAATGTGCACATGGAAATATATCTT,10.4 ± 0.12
4,ACATATATATTATAAGCATGCATGAGAAAATTTTTA [TGCATGCA_site1054],9.83 ± 0.16
5,AAAAAAAAAAAAAAAACACACATTTGAAGAAAAAAA [CACACA_site7389],10.4 ± 0.22
6,AATTGCTTCAAAATTAAACACACACTAATAAAAAAA [CACACA_site8855],10 ± 0.071
7,TATTTTATATACAGTGGTACTTTTTTTTTTTTTTTT [XGTACX_site2475],11.3 ± 0.9
8,AAAAAAAAAAAAAAATCACACACAATATGAATTTAT [CACACA_site8100],9.92 ± 0.14
9,TTTTCGCTTTTATAAAATTATATGAAAAAACTAAAA [XGTACX_negctrl_site139],9.88 ± 0.18
10,ATTTATATAAAATTAAAATAATACAAATTTATTCAT [GTGCAC_negctrl_site305],9.675 ± 0.049
11,TTATGGAAAAATATAACACACAATGATTTTTTATAA [CACACA_site1831],9.73 ± 0.16
12,TGTAATACATGTTGTTGTACAATATCTTTAACTTTT [XGTACX_site1219],11.1 ± 0.73
13,TATAACTATGGGTGTACACATTAATCGTTTTTCTTT [CACACA_site5196],11.5 ± 0.85
14,TATTGTAAAAAAGCAAAATTTATCACCTCCTTATTT [CACACA_negctrl_site172],9.68 ± 0.11
15,TACACAAAAATAAACACACACACATATAAATAAATA [CACACA_site6599],9.91 ± 0.085
16,CCACTAAAGGCATATACACACATTTTTTAAATTGCC [CACACA_site2839],10.2 ± 0.13
17,TTTTTTACATTCTGCACACAATTTATTTTTTTTTTT [CACACA_site4188],10.03 ± 0.028
18,GATATGGAATATATGTGTACATATATATATATTATA [XGTACX_site1724],11.3 ± 0.88
19,AAAAAAAAAAAAAATACACACACATAAAAAAAAAAA [CACACA_site8555],10.1 ± 0.18
20,ATATATATATATAGAAGTACTCTTATATATTTTATA [XGTACX_site1384],11.3 ± 0.69
